{
  "source": "paper PMC4802617",
  "about": "“Kinetics of cytochrome P450 enzymes for metabolism of sodium tanshinone IIA sulfonate in vitro” (Chinese Medicine, 2016)",
  "substrate": "Cc1c(S(=O)(=O)O)oc2c1C(=O)C(=O)c1c-2ccc2c1CCCC2(C)C",
  "experiment": "not read",
  "settings": "other: STS metabolism, CYP3A4 isoform 10 pmol, mean ± SD; pH 7.4; 37.0 °C",
  "data": [
    {"protein": "CYP3A4 (Homo sapiens) (protein) MALIPDLAMETWLLLAVSLVLLYLYGTHSHGLFKKLGIPGPTPLPFLGNILSYHKGFCMFDMECHKKYGKVWGFYDGQQPVLAITDPDMIKTVLVKECYSVFTNRRPFGPVGFMKSAISIAEDEEWKRLRSLLSPTFTSGKLKEMVPIIAQYGDVLVRNLRREAETGKPVTLKDVFGAYSMDVITSTSFGVNIDSLNNPQDPFVENTKKLLRFDFLDPFFLSITVFPFLIPILEVLNICVFPREVTNFLRKSVKRMKESRLEDTQKHRVDFLQLMIDSQNSKETESHKALSDLELVAQSIIFIFAGYETTSSVLSFIMYELATHPDVQQKLQEEIDAVLPNKAPPTYDTVLQMEYLDMVVNETLRLFPIAMRLERVCKKDVEINGMFIPKGVVVMIPSYALHRDPKYWTEPEKFLPERFSKKNKDNIDPYIYTPFGSGPRNCIGMRFALMNMKLALIRVLQNFSFKPCKETQIPLKLSLGGLLQPEKPVVLKVESRDGTVSGA", "values": [
      {"measurement": "Km", "result": "7.5 ± 1.4", "unit": "µM"},
      {"measurement": "kcat", "result": "6.8 ± 0.3", "unit": "nmol/nmol P450/min"}
    ]}
  ]
}
